Experimental data as given in patent EP4736885A1, “ANTIBODY-DRUG CONJUGATE AND USE THEREOF” (priority 2023, dated 2025).
Positions count from the first letter of the chain named. Several values for one entry are separate records, joined by “and”; a condition that tells them apart may be missing. Equal entries are not always repeated.

T1: human B7H3 protein (Homo sapiens, UniProt Q5ZPR3)
T1 construct: His; purchased Beijing ACROBiosystems Co., Ltd
T1 sequence (Q5ZPR3 29-534): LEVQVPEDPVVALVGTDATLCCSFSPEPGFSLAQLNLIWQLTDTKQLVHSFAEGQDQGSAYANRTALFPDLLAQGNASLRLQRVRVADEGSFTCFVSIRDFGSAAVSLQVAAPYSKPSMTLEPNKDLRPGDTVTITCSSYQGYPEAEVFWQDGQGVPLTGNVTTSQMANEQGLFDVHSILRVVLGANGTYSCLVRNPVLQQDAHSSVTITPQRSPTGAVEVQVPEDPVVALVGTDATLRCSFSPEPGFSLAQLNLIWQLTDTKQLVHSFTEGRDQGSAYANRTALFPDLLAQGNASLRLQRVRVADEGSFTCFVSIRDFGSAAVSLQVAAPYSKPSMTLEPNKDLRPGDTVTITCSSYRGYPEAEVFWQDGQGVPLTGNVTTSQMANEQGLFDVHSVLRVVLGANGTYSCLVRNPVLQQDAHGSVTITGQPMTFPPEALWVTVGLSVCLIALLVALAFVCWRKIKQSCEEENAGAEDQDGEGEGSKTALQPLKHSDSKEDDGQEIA

B1: 43B-045-6 (conjugate)
heavy: QVQLVQSGAEVKKPGASVKVSCKASGYTFTDYFMNWVRQAPGQGLEWMGDVNPKTGSPSYNQKFKGRVTMTRDTSTSTVYMELSSLRSEDTAVYYCARRYGFLYSMDYWGQGTSVTVSSASTKGPSVFPLAPSSKSTSGGTAALGCLVKDYFPEPVTVSWNSGALTSGVHTFPAVLQSSGLYSLSSVVTVPSSSLGTQTYICNVNHKPSNTKVDKRVEPKSCDKTHTSPPCPAPEAAGGPSVFLFPPKPKDTLMISRTPEVTCVVVDVSHEDPEVKFNWYVDGVEVHNAKTKPREEQYNSTYRVVSVLTVLHQDWLNGKEYKCKVSNKALAASIEKTISKAKGQPREPQVYTLPPSREEMTKNQVSLTCLVKGFYPSDIAVEWESNGQPENNYKTTPPVLDSDGSFFLYSKLTVDKSRWQQGNVFSCSVMHEALHNHYTQKSLSLSPGK
light: DIQMTQSPSSLSASVGDRVTITCRASQDISNYLNWYQQKPGKAVKVLIYYTSRLHSGVPSRFSGSGSGTDFTFTISSLQPEDIATYYCQQGNTHPFTFGGGTKVEIKRTVAAPSVFIFPPSDEQLKSGTASVVCLLNNFYPREAKVQWKVDNALQSGNSQESVTEQDSKDSTYSLSSTLTLSKADYEKHKVYACEVTHQGLSSPVTKSFNRGEC
B2: 43A-043 (conjugate)
heavy: B1 heavy with S228C
light: B1 light
B3: 43B-043 (conjugate)
heavy: B1 heavy
light: B1 light
B4: 43A-042 (conjugate)
heavy: B1 heavy with S228C
light: B1 light
B5: 43A-DXd (conjugate)
heavy: B1 heavy with S228C
light: B1 light
B6: 43B-042 (conjugate)
heavy: B1 heavy
light: B1 light

Test system: human liver cancer Hep3B xenograft tumors
Experiment: Anti-tumor experiment, Hep3B xenograft, Example 33
Type: in vivo, NU/NU mice
Conditions: 2.0 mg/kg, intravenous, single dose
Description: In this experiment, age-appropriate female NU/NU mice were selected to be inoculated with human liver cancer Hep3B cells. When the tumor volume reached about 100-200 mm^3, animals with good tumor growth were selected and evenly divided into 3 groups based on the tumor volume. Table 20. Animal grouping and dosing regimen
(§1) After grouping was completed, administration was performed, and the body weight of the mice was measured. The data were recorded. By measuring the tumor diameters at different time points after administration, the tumor growth was dynamically observed. The tumor volume was calculated using the following formula: Tumor volume (mm^3) = 1/2 × long diameter (mm) × ([shortdiameter(mm)])^2 [formula]

For B1, the “Mean tumor volume on D22 (mm^3)” value was 917.5±405.8 mm^3.

Same assay, conditions: 2.0 mg/kg, intravenous, single dose, D22

With B1 the “Tumor growth inhibition (TGI) rate (%)” value was 66.5%.

Same assay, conditions: baseline at grouping, 2.0 mg/kg group

With B1 the “Mean tumor volume on D0 (mm^3)” value was 153.0±57.1 mm^3.

Test system: B7H3-positive human melanoma cell strain A375
Experiment: Cell binding activity by flow cytometry
Type: cell-based
Conditions: binding to A375 cells, 4 °C 2 h, mean fluorescence intensity
Description: The affinity of the anti-B7H3 antibodies 43A and 43B was determined using the B7H3-positive human melanoma cell strain A375, with the M30 antibody used as a positive reference. Each sample was diluted to 15000 ng/mL with a PBS solution containing 2% BSA and then serially diluted across 11 gradients to achieve sample concentrations ranging from 0.014 ng/mL to 15000 ng/mL. A375 cells were taken, centrifuged at 500× g for 5 min, washed 3 times with the PBS solution containing 2% BSA, and incubated with the diluted samples with different concentrations at 4 °C for 2 h. After washing, the cells were incubated with a goat anti-human Alexa Fluor 488 fluorescent dye at 4 °C in the dark for 1 h. After further washing, the cells were resuspended, and the mean fluorescence intensity (MFI) of the cells was measured using an Attune NxT flow cytometer (Thermo Fisher Scientific, Inc.).

B1 gave an EC50 of 0.03778 µg/mL.

Test system: human melanoma A375 cells
Experiment: In vitro growth inhibition (resazurin), Example 27
Type: cell-based
Conditions: A375 (Table 9)
Description: (§2) The target cells were collected and resuspended to form a single-cell suspension, and the cell viability and cell count were determined by trypan blue staining. The cell density was adjusted to 1 × 10^5 cells/mL. The cell suspension was added to a 96-well black flat-bottom cell culture plate at 100 µL/well. The diluted test samples were added to the 96-well black flat-bottom cell culture plate (pre-seeded with cells) at 20 µL/well. […] A resazurin sodium solution (0.03%) was added at 20 µL/well. The plate was then incubated at 37 °C for 3-4 h. Fluorescence values were measured using a microplate reader at 550 nm/610 nm. Plotting was performed using Prism or similar plotting software, and then the half-maximal inhibitory concentration IC50 values of the test samples were calculated by fitting.

In the case of B1, the “IC50” value is reported as 0.01706 µg/mL.

Test system: human lung cancer Calu-6 cell xenograft tumors
Experiment: Anti-tumor experiment, Calu-6 xenograft, Example 26
Type: in vivo, NOD/SCID mice
Conditions: 3.0 mg/kg, intravenous, single dose, day 25
Description: In this experiment, age-appropriate female NOD/SCID mice were selected to be inoculated with human lung cancer Calu-6 cells. When the tumor volume reached about 100-200 mm^3, 48 animals with good tumor growth were selected and evenly divided into 6 groups based on the tumor volume. Table 7. Animal grouping and dosing regimen
as §1
On day 25 after administration, the mice were euthanized by carbon dioxide asphyxiation, and then the tumors were excised and weighed.

In order of rising “Tumor growth inhibition rate (%)” value:
1. B5  63.3%
2. B3  69.9%
3. B4  78.9%
4. B2  85.2%
5. B6  91.6%

In order of rising “Tumor volume on D25 (mm^3)” value:
1. B6  273.2±194.2 mm^3
2. B3  376.1±119.3 mm^3
3. B4  475.8±194.2 mm^3
4. B2  619.6±229.3 mm^3
5. B5  725.4±208.4 mm^3

In order of falling “Tumor weight” value:
1. B5  0.583 ± 0.153 g
2. B2  0.498 ± 0.189 g
3. B4  0.389 ± 0.167 g
4. B3  0.275 ± 0.079 g
5. B6  0.167 ± 0.000 g

In order of rising “Tumor weight inhibition rate (%)” value:
1. B5  57.4%
2. B2  63.6%
3. B4  71.6%
4. B3  79.9%
5. B6  84.8%

Test system: human melanoma A375 cell xenograft tumors
Experiment: Anti-tumor experiment, A375 xenograft, Example 30
Type: in vivo, NU/NU mice
Conditions: 2.0 mg/kg, intravenous, single dose
Description: In this experiment, age-appropriate female NU/NU mice were selected to be inoculated with human melanoma A375 cells. When the tumor volume reached about 100-200 mm^3, animals with good tumor growth were selected and evenly divided into groups based on the tumor volume. Table 14. Animal grouping and dosing regimen
as §1

For B1, the “Mean tumor volume on D26 (mm^3)” value was 144.6 ± 90.1 mm^3.

Same assay, conditions: baseline at grouping, 2.0 mg/kg group

For B1, the “Mean tumor volume on D0 (mm^3)” value was 128.9 ± 39.0 mm^3.

Test system: not listed separately
Experiment: Hydrophobicity of antibody-drug conjugates by hydrophobic interaction chromatography
Type: physicochemical
Conditions: TSKgel Butyl-NPR column, shorter time = more hydrophilic
Description: Hydrophobic interaction chromatography was used to compare the hydrophobicity of 43A-042, 43B-042, 43A-043, 43B-043, and 43A-DXd. Detection was performed on an e2695 high performance liquid chromatograph using a TSKgel Butyl-NPR chromatographic column (4.6 mm × 10 cm, Cat. No. 0042168/TOSOH). Mobile phase A was 1.0 M ammonium sulfate in 25 mM phosphate buffer, and mobile phase B was 25% isopropanol in 75% 25 mM phosphate buffer. The flow rate was 0.8 mL/min; the detection wavelength was 280 nm; the column temperature was 30 °C; the mobile phase gradient was as follows: 100%-0% A for 0-20 min, 0%-0% A for 20-23 min, 0%-100% A for 23-24 min, 100%-100% A for 24-28 min.

In order of falling retention time:
1. B4  9.189 min
2. B5  8.809 min
3. B6  8.643 min
4. B2  7.130 min
5. B3  6.426 min

Test system: human melanoma A375 cells
Experiment: In vitro growth inhibition (resazurin), Example 25
Type: cell-based
Conditions: A375, 168±8 h (Tables 5 and 6)
Description: as §2, with “100 µL/well. 43A-DXd was used as a reference standard. The diluted” for “100 µL/well. The diluted”, “of the reference standard and the test samples” for “of the test samples”

In order of falling “IC50” value:
1. B3  0.03678 µg/mL
2. B2  0.02269 µg/mL
3. B6  0.01405 µg/mL
4. B4  0.00941 µg/mL

In the case of B5, the “IC50” value is reported as 0.02419 µg/mL and 0.02429 µg/mL.

Target: T1, human B7H3 protein
Experiment: Antigen-binding activity (ELISA)
Conditions: His-tagged human B7H3 protein coated at 1 µg/mL
Description: The His-tagged human B7H3 protein (purchased from Beijing ACROBiosystems Co., Ltd.) was diluted to 1 µg/mL with a coating solution and added to a microplate at 100 µL/well. The microplate was incubated at 4 °C overnight. Then, a blocking solution was added at 100 µL/well to the microplate containing the coating solution. The plate was shaken at room temperature for 2 h and then washed 3 times with a washing buffer. Samples and reference standards were subjected to gradient dilution and then added at 100 µL/well. The plate was shaken at room temperature for 2 h and washed 4 times with the washing buffer. An enzyme-labeled antibody was added. Goat anti-human IgG-HRP was diluted with the sample diluent and then added at 100 µL/well. The plate was shaken at room temperature for 1 h and washed 4 times with the washing buffer. A substrate solution (freshly prepared TMB substrate solution) was added at 100 µL/reaction well for color development. The reaction proceeded at room temperature for 5-10 min. Then, a terminating solution was added at 100 µL/well, and the mixture was gently and well mixed to stop the reaction. The absorbance was measured using a microplate reader at wavelengths of 450 nm/650 nm. Plotting was then performed using four-parameter fitting in software, where the C value in the model represents the half-maximal effective concentration EC50. Using the 43A and 43B antibodies as reference standards, the binding activities of the corresponding antibody-drug conjugates were determined. […] Table 3. Summary of binding activity to human B7H3 protein

In order of falling “EC50” value:
1. B5  0.00119 µg/mL
2. B4  0.00117 µg/mL
3. B6  0.00116 µg/mL
4. B2  0.00109 µg/mL
5. B3  0.00105 µg/mL
